Source: PubChem BioAssay AID902 (National Center for Advancing Translational Sciences (NCATS), 2007)
Several values for one entry are separate records, joined by “and”; a condition that tells them apart may be missing. Identical values can stand only once. About 1,900 (1.5%) of roughly 130,000 compounds were called active. This list was built around the results that the source calls inconclusive (neither active nor inactive); the mix of calls is not that of the screen. Calls come from the whole dose curve; as a rule, active = well fitted cell-killing curve with a large enough effect; inconclusive = small, poorly fitted or top-dose-only effect; inactive = no such curve, though single readings can be large or run the other way. Potencies of inconclusive entries are doubtful fits and often do not repeat.

Assay: qHTS Screen for Compounds that Selectively Target Cancer Cells with p53 Mutations: Cytotoxicity of p53ts Cells at the Nonpermissive Temperature; note: nearly all actives have a fitted effect of over 55% in size
Details: H1299-p53A138V viability at 39C, ATP luminescence, 24 h; activity change, negative = cell killing: at 46.1 µM (top of the series)
% is set by controls: 0 for no effect and ±100 for the full control effect; potency is the fitted concentration of half-maximal effect; tags give direction and shape of the fitted curve.

| SMILES | Potency | activity change, negative = cell killing |
| --- | --- | --- |
| Cc1cc(N2CCN(C)CC2)nc2ccc(NC(=O)c3ccccc3F)cc12 | inconclusive: 1.26 µM [cytotoxic, partial curve] | – |
| COc1cccc(NC(=O)Cn2nc(-c3ccncc3)ccc2=O)c1 | inactive | – |
| Cc1ccc(S(=O)(=O)N(CC(=O)N2CCC(C(N)=O)CC2)Cc2ccc(F)cc2)cc1 | inactive | – |
| CC(C)c1ccc(C(=O)CC2(O)C(=O)N(CCc3ccccc3)c3ccc(Cl)cc32)cc1 (configuration not stated) | active: 15.8 µM | – |
| OC[C@@H]1O[C@H](n2cnc3c(/C=C(\O)c4ccccc4)ncnc32)[C@H](O)[C@@H]1O | – | inactive: 4.99% [at 9.22 µM] |
| COc1ccc2c(c1)CC(C(=O)Nc1ccc(Br)c(C)c1)CO2 (configuration not stated) | inconclusive: 0.0794 µM [cytotoxic, full curve, poor fit] | – |
| CC(=O)c1ccc(NC(=O)c2cnc(N3CCCC3)nc2C)cc1 | inactive | – |
| COc1ccc(NC(=O)CSc2nncn3c2cc2occc23)c(OC)c1 | inconclusive: 12.6 µM [cytotoxic, single point] | – |
| CNc1ncnc2ccc(-c3ccccc3C#N)cc12 | inactive | – |
| CC(C)(C)c1cc(C(c2cccnc2)N2CCN(CCO)CC2)cc(C(C)(C)C)c1O (configuration not stated) | inconclusive: 31.6 µM [cytotoxic, single point] | – |
| O=C(N=c1nc2ccccn2s1)c1ccccc1 | inconclusive: 2.51 µM [cytotoxic, full curve] | – |
| Cn1c(SCc2nc3ccccc3s2)nnc1-c1cccs1 | inactive | – |
| Cc1nn(-c2ccccc2)c(-n2cccc2)c1C(=O)NCCCN1CCN(c2ccccc2F)CC1 | inactive | – |
| Cc1ccc(C)c(NC(=O)CSc2cn(CC(=O)N3CCCCC3)c3ccccc23)c1 | inactive | – |
| CCOc1ccc(NC(=O)Cn2c(=O)nc(-c3ccccc3)c3ccccc32)cc1 | inconclusive: 31.6 µM [cytotoxic, partial curve] | – |
| COc1ccc(OC(=O)c2cc(-c3ccc4c(c3)OCCO4)on2)cc1 | active: 12.6 µM | – |
| CCOc1ccc(CN(CCc2ccc3c(c2)OCO3)Cc2cc(OC)cc(OC)c2)cc1 | inactive | – |
| CSc1n[nH]c(NCc2ccc(C)cc2)n1 | active: 14.1 µM | – |
| CCN(c1ccccc1)c1ncnc2c1cnn2-c1ccc(OC)cc1 | active: 12.6 µM | – |
| Cc1cc(N2CCN(C)CC2)nc2ccc(NC(=O)Nc3ccc(F)cc3)cc12 | inconclusive: 31.6 µM [cytotoxic, single point] | – |
| Brc1ccc(-c2cn3cc(Cc4ccccc4)sc3n2)cc1 | inconclusive: 5.01 µM [cytotoxic, full curve, poor fit] | – |
| COc1ccc(OC)c(Nc2nc(-c3ccc(O)c(O)c3)cs2)c1 | inconclusive: 25.1 µM [cytotoxic, single point] | – |
| Cn1cc(CCCC(=O)NCc2ccc(F)cc2)c2ccccc21 | inconclusive: 0.794 µM [cytotoxic, partial curve] | – |
| COc1ccc(Nc2cc(C(=O)NCCCN3CCN(C)CC3)c3ccccc3n2)c(OC)c1 | inconclusive: 12.6 µM [cytotoxic, partial curve] | – |

| SMILES | Potency | activity change, negative = cell killing |
| --- | --- | --- |
| CCN(CCCNC(=O)CN1N=C(c2ccccc2)CCC1=O)c1cccc(C)c1 | inconclusive: 5.01 µM [cytotoxic, partial curve] | – |
| O=C(Cn1c(=O)n(Cc2ccco2)c(=O)c2sc3ccccc3c21)Nc1ccc(F)cc1F | inconclusive: 31.6 µM [cytotoxic, single point] | – |
| COc1ccc(Cn2c(CCC(=O)Nc3cc(C)cc(C)c3)nc3cccnc32)cc1 | inconclusive: 20 µM [cytotoxic, partial curve] | – |
| COc1cc2c3cc1Oc1c(OC)c(OC)cc4c1[C@@H](Cc1ccc(O)c(c1)Oc1ccc(cc1)C[C@@H]3N(C)CC2)N(C)CC4 | inactive | – |
| O=C(O)C[C@@H]1CCCc2ccccc2[C@H]1O | inactive | – |
| NCCOc1ccccc1-c1ccccc1 | inconclusive: 20 µM [cytotoxic, single point] | – |
| Cc1cccc(C(=O)Nc2ccc(O)cc2)c1 | inconclusive: 10 µM [cytotoxic, partial curve] | – |
| CC1CN(C(=O)CCC(=O)NCc2ccccc2)c2cc(Cl)ccc2O1 (configuration not stated) | inconclusive: 25.1 µM [cytotoxic, partial curve, poor fit] | – |
| Cc1cc(C(=O)Nc2ccc3c(c2)OCCO3)co1 | active: 15.8 µM | – |
| COc1cc(Nc2ncc3c(n2)CCN(Cc2cc(F)cc(F)c2)C3)cc(OC)c1 | inconclusive: 31.6 µM [cytotoxic, single point] | – |
| COC(=O)c1ccc(C(NC(=O)OCc2ccccc2)/C(F)=C/[C@@H](C)C(=O)Nc2ccc(OC)cc2)cc1 (some centres not stated) | inconclusive: 25.1 µM [cytotoxic, single point] | – |
| CCOC(=O)CS(=O)(=O)c1nc(-c2ccc(F)cc2)cc(C(F)(F)F)n1 | inconclusive: 31.6 µM [cytotoxic, single point] | – |
| O=C(Nc1ccc(F)cc1F)N1CCN(c2ccc(Cl)c(Cl)c2)CC1 | inconclusive: 3.98 µM [cytotoxic, full curve] | – |
| CCCCCc1nn2cc(-c3ccccc3)nc2s1 | active: 10 µM | – |
| CCCCCCOC(=O)C(C#N)c1nc2ccccc2nc1N1CCOCC1 (configuration not stated) | inactive | – |
| CCOC(=O)OCC1OC(C#Cc2ccc(C(C)(C)C)cc2)C=CC1OC(=O)OCC (configuration not stated) | – | inactive: -1.71% [at 9.22 µM] |
| C/C(=N\NC(=O)CN1CCN(Cc2ccc(C)cc2)CC1)c1ccncc1 | inconclusive: 0.0794 µM [cytotoxic, full curve, poor fit] | – |
| CC(=O)c1ccc(N2CCN(c3ncnc4c3cnn4C)CC2)cc1 | inconclusive: 0.251 µM [cytotoxic, partial curve, poor fit] | – |
| O=C(Nc1ccc(-c2nc3ccccc3[nH]2)cc1)c1ccco1 | inconclusive: 6.31 µM [cytotoxic, partial curve] | – |
| CCOc1ccc(NC(=O)C(C)Sc2nc3ncccc3o2)cc1 (configuration not stated) | inconclusive: 6.31 µM [cytotoxic, full curve] | – |
| O=C(/C=C\Nc1ccccn1)c1ccccc1 | inconclusive: 12.6 µM [cytotoxic, partial curve] | – |
| COc1cc2c(cc1C(F)(F)F)N(C(=O)Nc1cc(F)cc(-c3cccnc3)c1)CC2 | inconclusive: 10 µM [cytotoxic, partial curve] | – |
| O=C1/C(=C/Nc2ccc3c(c2)OCO3)CCc2ccccc21 | active: 6.31 µM | – |
| COc1cccc(NC(CNS(=O)(=O)c2ccc(C)cc2)c2ccccc2)c1 (configuration not stated) | inconclusive: 25.1 µM [cytotoxic, single point] | – |

| SMILES | Potency | activity change, negative = cell killing |
| --- | --- | --- |
| COc1ccc(C2CC(=O)Nc3c2c(=O)nc2c(C)cccn32)cc1 (configuration not stated) | inactive | – |
| COc1ccc(S(=O)(=O)Nc2ccc3c(c2)OCO3)cc1C(=O)O | inactive | – |
| Cc1cc(=O)[nH]c(-n2nc(C)cc2C)n1 | inconclusive: 31.6 µM [cytotoxic, single point] | – |
| Cc1cccc(NC(=O)CSc2nc3c(oc4ccccc43)c(=O)n2C(C)C)c1 | inactive | – |
| CC(C)OCCCN1C(=O)c2[nH]nc(-c3ccccc3O)c2C1c1cccc(Cl)c1 (configuration not stated) | inconclusive: 25.1 µM [cytotoxic, single point] | – |
| N#CC(C#N)=c1ccc2c(c1)NC1(CCCCC1)N=2 | inactive | – |
| CC(C)NC[C@@H](O)COc1cccc2ccccc12 | inconclusive: 25.1 µM [cytotoxic, partial curve] | – |
| COc1cc(SC)ccc1C(=O)Nc1ccon1 | inconclusive: 15.8 µM [cytotoxic, single point] | – |
| Cc1cnc(Nc2nc3ccccc3o2)nc1C(=O)Nc1cccc(C(F)(F)F)c1 | inconclusive: 15.8 µM [cytotoxic, partial curve] | – |
| O=C(CCCSc1nc(-c2ccco2)cc(C(F)(F)F)n1)Nc1ccc2c(c1)OCO2 | inactive | – |
| CC(C)c1cccc2nc3c(c([Si](C)(C)C)c12)Cn1c-3cccc1=O | inconclusive: 31.6 µM [cytotoxic, single point] | – |
| CC(C)(C)c1ccc(OC2C(O)COC2/C=C/C#Cc2ccccc2)cc1 (configuration not stated) | – | inactive: -15.3% [at 9.22 µM] and inactive: -3.09% [at 9.22 µM] |
| O=C(Nc1ccc(CN2CCOCC2)cc1)c1cccs1 | inconclusive: 10 µM [cytotoxic, partial curve] | – |
| CCc1ccccc1NS(=O)(=O)c1ccc2[nH]cc(C(=O)NCc3ccco3)c(=O)c2c1 | inconclusive: 10 µM [cytotoxic, partial curve] | – |
| CC(C)CCN1CCc2nc(COc3ccccc3)c3c(c2C1)COC(C)C3 (configuration not stated) | – | inactive: -3.91% [at 9.22 µM] |
| O=C(Nc1noc2ccccc12)c1cccc(F)c1 | inconclusive: 15.8 µM [cytotoxic, partial curve] | – |
| O=C(Nc1ccc2oc(-c3ccccc3Cl)nc2c1)c1cncc(Br)c1 | inconclusive: 12.6 µM [cytotoxic, partial curve] | – |
| CCOC(=O)C1CCN(C(=O)CSc2c3c(nc4ccc(Cl)cc24)CCCC3)CC1 | inconclusive: 15.8 µM [cytotoxic, single point] | – |
| c1ccc2c(c1)CCN(Cc1nnnn1Cc1ccc3c(c1)OCO3)C2 | inactive | – |
| O=S(=O)(c1ccc(S(=O)(=O)N(Cc2ccc(F)cc2)C2CCCC2)cc1)N1CCCC1 | inactive | – |
| O=C(COC(=O)c1ccccn1)Nc1nccs1 | inactive | – |
| CC(C)CO/N=C1/[C@H]2O[C@@H]2[C@@H](O)[C@H]2[C@H]1CCn1c(=O)n(-c3ccccc3)c(=O)n12 | – | inactive: -1.54% [at 9.22 µM] |
| Cc1cc(N/C=C/C(=O)c2ccc(Br)cc2)no1 | inactive | – |
| COc1cccc(-c2nnc(NC(=O)c3ccc(S(=O)(=O)N4CCOCC4)cc3)o2)c1 | inconclusive: 6.31 µM [cytotoxic, partial curve] | – |
